Residue numbers refer to the chain shown, from its start. This is one part of the list.
B1: UCCAACC (DNA:RNA)
RNA: GGGAGACCGGAAUUCAGAUUGUCCUCCAACCUUAAAUCCCGUCGUAGCCACCA
DNA 1: CAATCTGAATTCCGGTCTCCC
DNA 2: TGGTGGCTACGACGGGATT
B2: GCCCAAU (DNA:RNA)
RNA: B1 RNA with U25G, A28C, C30A, C31U
DNA 1: CAATCTGAATTCCGGTCTCCC
DNA 2: TGGTGGCTACGACGGGATT
B3: CCCCAUA (DNA:RNA)
RNA: B1 RNA with U25C, A28C, C30U, C31A
DNA 1: CAATCTGAATTCCGGTCTCCC
DNA 2: TGGTGGCTACGACGGGATT
B4: CAACUCG (DNA:RNA)
RNA: B1 RNA with U25C, C26A, C27A, A28C, A29U, C31G
DNA 1: CAATCTGAATTCCGGTCTCCC
DNA 2: TGGTGGCTACGACGGGATT
B5: CCGCCAC (DNA:RNA)
RNA: B1 RNA with U25C, C27G, A28C, A29C, C30A
DNA 1: CAATCTGAATTCCGGTCTCCC
DNA 2: TGGTGGCTACGACGGGATT
B6: UAUGGUG (DNA:RNA)
RNA: B1 RNA with C26A, C27U, A28G, A29G, C30U, C31G
DNA 1: CAATCTGAATTCCGGTCTCCC
DNA 2: TGGTGGCTACGACGGGATT
B7: UGGGUAU (DNA:RNA)
RNA: B1 RNA with C26G, C27G, A28G, A29U, C30A, C31U
DNA 1: CAATCTGAATTCCGGTCTCCC
DNA 2: TGGTGGCTACGACGGGATT
B8: CUAGGGC (DNA:RNA)
RNA: B1 RNA with U25C, C26U, C27A, A28G, A29G, C30G
DNA 1: CAATCTGAATTCCGGTCTCCC
DNA 2: TGGTGGCTACGACGGGATT
B9: GCCCUUA (DNA:RNA)
RNA: B1 RNA with U25G, A28C, A29U, C30U, C31A
DNA 1: CAATCTGAATTCCGGTCTCCC
DNA 2: TGGTGGCTACGACGGGATT

Target: T1, RBFOX1 RRM RbFoxmut (Fox-RRM*) (Homo sapiens, UniProt Q9NWB1 109-208, R118D;E147R;N151S;E152T)
T1 sequence: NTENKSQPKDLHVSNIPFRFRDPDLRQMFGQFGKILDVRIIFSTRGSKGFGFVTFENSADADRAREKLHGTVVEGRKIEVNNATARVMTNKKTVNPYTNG
Experiment: EMSA; HiTS-Eq, 1 nM pool, 10 min; buffer printed only for the single-RNA assays: 10 mM Tris pH 7.5, 150 mM NaCl, 3.4 mM EDTA, 0.001% NP-40, 30 C
Settings: tags: His6 N-terminal (pET28a); label: 5' 32P
In short: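 Purified RbFox RRM (wild type or mutant) was equilibrated for 10 min in 50 µL with 1 nM of a 5′-radiolabelled pool of RNA with 7 randomized nucleotides, its flanks annealed to DNA oligonucleotides, across increasing protein concentrations. Free RNA was separated by 8% native PAGE, excised, reverse-transcribed, PCR-barcoded and sequenced on an Illumina HiSeq 2500. Relative association constants came from read-count changes of each variant against the control reaction, normalised to the cognate motif.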

**Q.** How did the binding signal turn out when B1 was run?
**A.** Its binding signal is 0.0389 KA relative to UGCAUGU.

**Q.** Which binding signal does the source give for B2 here?
**A.** The binding signal was 0.0622 KA relative to UGCAUGU.

**Q.** Which binding signal does the source give for B3 here?
**A.** Its binding signal is 0.123 KA relative to UGCAUGU.

**Q.** For B4, which binding signal is on record?
**A.** Its binding signal is 0.142 KA relative to UGCAUGU.

**Q.** How did the binding signal turn out when B5 was run?
**A.** The binding signal was 0.0628 KA relative to UGCAUGU.

**Q.** For B6, which binding signal is on record?
**A.** The binding signal was 0.131 KA relative to UGCAUGU.

**Q.** For B7, which binding signal is on record?
**A.** The binding signal was 0.172 KA relative to UGCAUGU.

**Q.** With B8 as the binder, how does the binding signal read?
**A.** The binding signal was 0.0765 KA relative to UGCAUGU.

**Q.** How did the binding signal turn out when B9 was run?
**A.** Its binding signal is 0.0811 KA relative to UGCAUGU.
